Experimental data published in paper PMC5515408.
Some of the results follow. At the low end of the ranking, values are background and their order means little.

Each sequence was assayed on MYC (p64) + MAX (p21), in MYC:MAX (assay: protein-binding microarray (anti-MAX antibody)). Conditions: PBM: 15 mM Tris-HCl pH 7.5, 100 mM KCl, 0.075% NP40, 7.5 mM beta-mercaptoethanol, 375 ng/ul BSA, 8 ng/ul poly(dA-dT):(dA-dT), 550 ng complex, 60 min, room …; high values mean tight binding; double strand, one strand shown; sequences stand for … in CCGGC…TTAATAGCTAAGATTACTATATCGACG.

Row | Sequence | binding signal (log2 normalized fluorescence)
1 | TAGCAGCCATGG | 0.105
2 | TGACACCCTGTA | 0.323
3 | TGATATGCGGTA | 0.226
4 | TGAGTTCCTGTA | -0.0293
5 | TGAATGGTCGTA | -0.0893
6 | CGACACGTGATA | 0.927
7 | TGATCCCCAGTA | -0.00652
8 | TGCATCGTGGTA | 0.636
9 | TGATAACGGGTA | 0.0896
10 | TGAGACGTCGTA | 0.0945
11 | TGACACGTGGTT | 0.795
12 | TGATTCGGTGTA | -0.136
13 | TGATCGCCCGTA | -0.005
14 | TGAGTAAACGTA | -0.156
15 | TGACACGTCTGA | 0.468
16 | TGACGCATAGTA | 0.204
17 | TGACACCGGGTA | 0.135
18 | TGGCACGAGGTT | 0.697
19 | TGTCATGTAGTA | 0.231
20 | TGAGCGCAAGTA | 0.175
21 | TGACTGCGAGTA | 0.161
22 | TGATGGGTAGTA | -0.0659
23 | TGAATGTGCGTA | 0.43

Row | Sequence | binding signal (log2 normalized fluorescence)
24 | TGACCGGAGGTA | -0.0398
25 | TGACATGTGGCA | 0.595
26 | TGAAGACCCGTA | 0.182
27 | TGATATAACGTA | 0.0713
28 | TGAGAATGTGTA | 0.241
29 | TGAGCCTGAGTA | -0.067
30 | TGATTTTGAGTA | -0.16
31 | TGAAATGACGTA | 0.175
32 | TGACACAACGTA | 0.345
33 | TGAGAAGTAGTA | -0.0932
34 | TGATTAATCGTA | 0.00748
35 | GCGGTTGGATAG | 0.223
36 | TGAGGGGAAGTA | 0.331
37 | TGAGTTTATGTA | 0.0235
38 | TGAATGTATGTA | 0.204
39 | CGACCCGTGGTA | 0.391
40 | TGACACGCTTTA | 0.541
41 | TGATTCCTCGTA | 0.216
42 | TGATTCATGGTA | 0.183
43 | TGAAATTTGGTA | -0.229
44 | TGATTGATAGTA | -0.193
45 | TGATATAAGGTA | -0.0417
46 | TGAACGCAAGTA | 0.302

Row | Sequence | binding signal (log2 normalized fluorescence)
47 | TGAAGGAAAGTA | 0.116
48 | TGATAAGTGGGA | -0.133
49 | TGACTCTGGGTA | -0.215
50 | TGAACAGAAGTA | 0.21
51 | TGAGGTGCTGTA | 0.228
52 | GAACACGTAGTA | 0.322
53 | TGACCCTACGTA | 0.137
54 | TGACAACGGGTA | 0.226
55 | TGATCGATTGTA | 0.0332
56 | TGAATGTTTGTA | 0.282
57 | TGAGGCGAGGTA | 0.237
58 | TGACACCTCTTA | 0.403
59 | TGAGGACAAGTA | 0.00983
60 | TGACCATGCGTA | 0.657
61 | TGAAGTGTCGTA | 0.0163
62 | TGATTATAGGTA | -0.12
63 | TGATCTGAGGTA | -0.0711
64 | TGACCCGCCGTA | 0.264
65 | TGAACACTGGTA | 0.267
66 | TGACTCGCTGTA | 0.236
67 | TGATGGAACGTA | 0.186
68 | TGACTTCTCGTA | 0.0406
69 | TGAATACGCGTA | 0.156

Row | Sequence | binding signal (log2 normalized fluorescence)
70 | TGAGCTAAGGTA | -0.158
71 | GGACACGAGGTA | 0.562
72 | TGAGACTTCGTA | -0.101
73 | TGACACGTCTTA | 0.308
74 | TGACACGCGCTA | 0.811
75 | TGACTACATGTA | 0.419
76 | TGACTTGAGGTA | 0.196
77 | TGATCTGTCGTA | 0.065
78 | TGGCACAGGGTA | 0.186
79 | TGACAATTTGTA | 0.00323
80 | TGACGGCCGGTA | -0.136
81 | TGAATTTTTGTA | -0.151
82 | TGATACAATGTA | 0.174
83 | GTGCACGTGGTA | 0.856
84 | TGATGTTCAGTA | 0.192
85 | TGAGGGCCTGTA | 0.145
86 | TGACCGACCGTA | 0.192
87 | TGATCTAGTGTA | -0.0943
88 | TGAGGCCAAGTA | -0.135
89 | TGAAAAAGGGTA | -0.0246
90 | TGACAAGTGGCA | 0.332
91 | TGACTTCGTGTA | 0.39
92 | TGAGATGAGGTA | 0.0191

Row | Sequence | binding signal (log2 normalized fluorescence)
93 | TTGCACGTGGTA | 1.01
94 | TGAGTCACGGTA | 0.169
95 | TGCTACGTGGTA | 0.375
96 | TGAAACTTCGTA | 0.0456
97 | TGAAAGCATGTA | 0.491
98 | TGACAGACCGTA | 0.273
99 | TGATCTCCAGTA | 0.0575
100 | TGATAAGTCGTA | -0.0999
101 | AATCACGTGGTA | 0.75
102 | TGATTGGCGGTA | -0.0843
103 | TGAAATAGTGTA | 0.0457
104 | TGATCTTCGGTA | -0.267
105 | TGACTGGAAGTA | 0.0371
106 | TAACAGGTGATA | 0.412
107 | TGACACGTGCGT | 0.597
108 | TGACTCTACGTA | 0.179
109 | TGAAACAATGTA | 0.152
110 | TGATCTTTGGTA | -0.146
111 | TGATAATTTGTA | -0.19
112 | TGACGAATAGTA | -0.0399
113 | TGTGGCGTGGTA | 0.452
114 | TAACACGCGGTA | 0.819
115 | TGACGGACTGTA | 0.0984

Row | Sequence | binding signal (log2 normalized fluorescence)
116 | TGATTAAGGGTA | -0.0226
117 | TGAAACGTGGAC | 0.506
118 | TGACAGAGGGTA | 0.0838
119 | TGAAACCTCGTA | 0.163
120 | TGAATTTGTGTA | -0.0827
121 | TGAATGTCCGTA | 0.208
122 | TGACCACCAGTA | 0.337
123 | TGACAGTGTGTA | 0.358
124 | TGATACCCCGTA | -0.0644
125 | TGAAATGTAGTA | 0.0682
126 | TGAGTATGTGTA | 0.0231
127 | TGAAAAAGTGTA | 0.0869
128 | TGATTTAGAGTA | -0.177
129 | TGAGAGTCCGTA | -0.0888
130 | TGAATGTGGGTA | 0.285
131 | TGAGGCCATGTA | 0.202
132 | TGATATGCTGTA | -0.0984
133 | TCACACGCGGTT | 0.822
134 | TGATGCGTAGTA | 0.158
135 | TGACCGATAGTA | -0.0965
136 | TGATGATTTGTA | -0.0486
137 | TTGCACGTGGTT | 0.716
138 | TGAGGTTCCGTA | -0.136
